Test results from the supplement of paper PMC12067230.
The data scatter; read single values as rough.

assay: amyloid nucleation score relative to library mode (yeast Sup35 reporter selection) (log enrichment difference); higher = more amyloid nucleation; sequences are the first 22 residues of the Bri2 peptide extended by up to 12 random residues; conditions: random library (experiment): 1;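 active = nucleation score significantly above 0 at FDR 0.05; inactive = not significantly above 0 or absent from output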
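Also: [psi-pin-] Saccharomyces cerevisiae expressing SupN fusions, induced by 100 µM Cu2SO4, selected 7 d at 30 °C without adenine and uracil, scored by deep sequencing of output versus input.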

Sequence | amyloid nucleation score
EASNCFAIRHFENKFAVETLICVPHGVRVALNRR | inactive
EASNCFAIRHFENKFAVETLICACWHVMRFNEEP | 2.88
EASNCFAIRHFENKFAVETLICVVGASGAGVMCW | inactive
EASNCFAIRHFENKFAVETLICKCVRYTHFNSVV | inactive
EASNCFAIRHFENKFAVETLICCAER | 3.25
EASNCFAIRHFENKFAVETLICCDASSACFFLSW | 7.93
EASNCFAIRHFENKFAVETLICLEIESKLGSRWI | 3.14
EASNCFAIRHFENKFAVETLICEHNGKSTGQRDW | inactive
EASNCFAIRHFENKFAVETLICHIPGILPHYVPM | 0.706
EASNCFAIRHFENKFAVETLICRSCICTCPKLEV | 5.44
EASNCFAIRHFENKFAVETLICDLAMMRVWRDRF | inactive
EASNCFAIRHFENKFAVETLICNRGILLCSVVIR | inactive
EASNCFAIRHFENKFAVETLICLFSVDSRVYAFK | inactive
EASNCFAIRHFENKFAVETLICTGPMVFRGMFLP | 7.09
EASNCFAIRHFENKFAVETLICRNVDIGSQRVTA | inactive
EASNCFAIRHFENKFAVETLICDMGG | inactive
EASNCFAIRHFENKFAVETLICHVDQHT | inactive
EASNCFAIRHFENKFAVETLICNDVSVVVGRWRW | 6.46
EASNCFAIRHFENKFAVETLICTMVV | inactive
EASNCFAIRHFENKFAVETLICMDRPR | -0.129
EASNCFAIRHFENKFAVETLICGRGRLLRSGLER | inactive
EASNCFAIRHFENKFAVETLICPITLTRVETSAG | inactive
EASNCFAIRHFENKFAVETLICTMQIHRPIITPS | inactive

Sequence | amyloid nucleation score
EASNCFAIRHFENKFAVETLICGDLSENIAVSGG | inactive
EASNCFAIRHFENKFAVETLICCSET | 6.04
EASNCFAIRHFENKFAVETLICGPLFHSALPCGR | -0.523
EASNCFAIRHFENKFAVETLICYVLRRVRATLGG | inactive
EASNCFAIRHFENKFAVETLICVYMMPVNRICRR | inactive
EASNCFAIRHFENKFAVETLICKC | inactive
EASNCFAIRHFENKFAVETLICKFNSVAVIFKD | inactive
EASNCFAIRHFENKFAVETLICVPSCMSVELLTS | 5.37
EASNCFAIRHFENKFAVETLICCELERGWVLSLW | inactive
EASNCFAIRHFENKFAVETLICWYTAWVVESFSG | inactive
EASNCFAIRHFENKFAVETLICLRLP | inactive
EASNCFAIRHFENKFAVETLICWSWSYLCLKYKS | inactive
EASNCFAIRHFENKFAVETLICFVLLCITKLRSW | inactive
EASNCFAIRHFENKFAVETLICLWKRWSMGNGRR | inactive
EASNCFAIRHFENKFAVETLICYNNSMQCNMANA | inactive
EASNCFAIRHFENKFAVETLICDFVLYMRKSESQ | 2.89
EASNCFAIRHFENKFAVETLICVVVMWGQAWMGR | -0.163
EASNCFAIRHFENKFAVETLICPKMAGDDLLD | inactive
EASNCFAIRHFENKFAVETLICVAKLSLMDAPCR | inactive
EASNCFAIRHFENKFAVETLICALGLCQPKYGHW | 4.07
EASNCFAIRHFENKFAVETLICLSSFASACGSRK | 2.68
EASNCFAIRHFENKFAVETLICEHEWMDMGTPAV | inactive
EASNCFAIRHFENKFAVETLICYFVLVELGVGCG | 5.59

same assay, conditions: random library (experiment): 2

Sequence | amyloid nucleation score
EASNCFAIRHFENKFAVETLICCLQGRFNRNCVR | inactive
EASNCFAIRHFENKFAVETLICQPEQFPMTSRVS | inactive
EASNCFAIRHFENKFAVETLICYQDSIIMGSLG | 5.89
EASNCFAIRHFENKFAVETLICFVGWTSFDSVHP | inactive
EASNCFAIRHFENKFAVETLICDRIESLQCMWLV | 4.85
EASNCFAIRHFENKFAVETLICVWSRQTKDRYSE | inactive
EASNCFAIRHFENKFAVETLICPKKVGLVSNGRI | 0.151
EASNCFAIRHFENKFAVETLICGYIDIRGFLDLV | 4.66
EASNCFAIRHFENKFAVETLICTFERCEFRSNTG | 4.63
EASNCFAIRHFENKFAVETLICNTL | inactive
EASNCFAIRHFENKFAVETLICISSDIIRCGVLR | inactive
EASNCFAIRHFENKFAVETLICVNRCNGFSGITR | -0.0488
EASNCFAIRHFENKFAVETLICYDVRLCLYCSRW | 4.55
EASNCFAIRHFENKFAVETLICDNFVWL | 0.571
EASNCFAIRHFENKFAVETLICRSVLNDCMYSDW | inactive
EASNCFAIRHFENKFAVETLICWLVNVKVNKAIK | inactive
EASNCFAIRHFENKFAVETLICCSMLFITCNMWL | inactive
EASNCFAIRHFENKFAVETLICFDMWSITRCLVF | inactive
EASNCFAIRHFENKFAVETLICWGMISMYNGVMV | -0.14

same assay, conditions: random library (experiment): 3

Sequence | amyloid nucleation score
EASNCFAIRHFENKFAVETLICYIKYEADVIKSV | inactive
EASNCFAIRHFENKFAVETLICCYVVGGSYCW | 6.34
EASNCFAIRHFENKFAVETLICALVWGPGRRWCR | inactive
EASNCFAIRHFENKFAVETLICYLGPVMQLRRLD | 7.04
EASNCFAIRHFENKFAVETLICGKGLPCPRLDGD | inactive
EASNCFAIRHFENKFAVETLICWLPKYARRRETV | inactive
EASNCFAIRHFENKFAVETLICFKF | inactive
EASNCFAIRHFENKFAVETLICQEVSTKGPSKEE | inactive
EASNCFAIRHFENKFAVETLICAGWHVMLTRIGA | inactive
EASNCFAIRHFENKFAVETLICCNLSRWGGFRLF | 6.64
EASNCFAIRHFENKFAVETLICCAFMRRDLCANV | 3.02
EASNCFAIRHFENKFAVETLICRMRSGTRMVRRG | inactive
EASNCFAIRHFENKFAVETLICLCKNLDCELCAK | inactive
EASNCFAIRHFENKFAVETLICKGGTENLLRFIR | 0.933
EASNCFAIRHFENKFAVETLICQWMRICRECTDC | inactive
EASNCFAIRHFENKFAVETLICKVWCTLDRVCWL | inactive
EASNCFAIRHFENKFAVETLICDNCVGLVNGHSA | 5.01
EASNCFAIRHFENKFAVETLICRSMSRTSIWPTW | inactive
EASNCFAIRHFENKFAVETLICWLGPTTEGLEVA | inactive
EASNCFAIRHFENKFAVETLICLM | 4.4
EASNCFAIRHFENKFAVETLICFMRFTVNWVVKG | inactive
